# Screen size: about 350,000 compounds; about 31,000 (8.9%) were called active. The inconclusive results got no clear call from the source; some entries with a clear call stand among them for comparison. Calls follow the shape of the dose curve; as a rule, active = well fitted inhibition curve with a large enough effect; inconclusive = small, poorly fitted or top-dose-only effect; inactive = no such curve, though single readings can be large or run the other way. A potency beside an inconclusive call is a rough fit, not a confirmed value.
# Biological target: Histone-lysine N-methyltransferase EHMT2 (Homo sapiens) (UniProt Q96KQ7)
# UniProt Q96KQ7, sequence (Q96KQ7 whole entry, looked up): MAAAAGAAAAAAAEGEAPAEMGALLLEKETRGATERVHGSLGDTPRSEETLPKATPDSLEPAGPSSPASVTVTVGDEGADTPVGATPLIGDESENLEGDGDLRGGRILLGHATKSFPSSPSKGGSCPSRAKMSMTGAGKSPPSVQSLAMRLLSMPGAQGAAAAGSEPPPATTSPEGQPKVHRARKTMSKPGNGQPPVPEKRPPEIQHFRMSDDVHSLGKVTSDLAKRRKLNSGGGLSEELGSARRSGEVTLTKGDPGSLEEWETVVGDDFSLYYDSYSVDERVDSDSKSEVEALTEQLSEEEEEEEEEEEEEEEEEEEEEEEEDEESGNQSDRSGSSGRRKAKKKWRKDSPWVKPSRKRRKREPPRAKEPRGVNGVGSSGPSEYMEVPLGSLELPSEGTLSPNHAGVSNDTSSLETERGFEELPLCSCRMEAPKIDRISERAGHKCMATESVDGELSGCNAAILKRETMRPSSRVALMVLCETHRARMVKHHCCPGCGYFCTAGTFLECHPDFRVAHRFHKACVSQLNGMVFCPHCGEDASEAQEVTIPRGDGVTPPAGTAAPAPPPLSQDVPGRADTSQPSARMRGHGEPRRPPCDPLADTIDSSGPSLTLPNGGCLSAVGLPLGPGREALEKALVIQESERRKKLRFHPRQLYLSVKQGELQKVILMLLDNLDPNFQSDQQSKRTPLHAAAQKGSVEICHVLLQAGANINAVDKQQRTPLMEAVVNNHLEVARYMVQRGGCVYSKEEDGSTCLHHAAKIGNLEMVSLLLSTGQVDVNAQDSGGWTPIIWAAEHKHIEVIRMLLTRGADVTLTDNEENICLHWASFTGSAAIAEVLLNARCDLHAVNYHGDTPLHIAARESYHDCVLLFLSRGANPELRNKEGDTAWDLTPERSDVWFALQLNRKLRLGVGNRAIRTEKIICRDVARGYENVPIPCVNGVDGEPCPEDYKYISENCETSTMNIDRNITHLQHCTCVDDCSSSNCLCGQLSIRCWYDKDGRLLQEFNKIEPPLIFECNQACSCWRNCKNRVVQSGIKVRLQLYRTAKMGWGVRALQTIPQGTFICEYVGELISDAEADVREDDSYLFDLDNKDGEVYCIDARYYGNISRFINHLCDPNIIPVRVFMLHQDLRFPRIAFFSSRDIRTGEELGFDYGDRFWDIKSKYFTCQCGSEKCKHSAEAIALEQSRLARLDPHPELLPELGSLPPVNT
# Assay: qHTS Assay for Inhibitors of Histone Lysine Methyltransferase G9a; also: nearly all actives have a fitted effect of over 75% in size
# Settings: G9a H3K9 monomethylation, AlphaScreen, 2 h; activity, negative = inhibition: at 59 µM (top of the series) unless noted
# Summary of the method: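 G9a (20 nM) was preincubated 15 min with compound, then reacted 2 h at room temperature with 500 nM biotin-H3K9 peptide and 20 µM SAM. Monomethyl-H3K9 detected by AlphaScreen using anti-H3K9me1 antibody.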
# % is scaled to controls: 0 for no effect and ±100 for the full control effect; potency is read from the fitted curve at half-maximal effect; tags tell the direction and shape of the fitted curve.
SMILES,Potency,"activity, negative = inhibition"
Cc1nc(NS(=O)(=O)c2ccccc2)sc1NC(=O)OCCN(C)C,"inconclusive: 3.55 µM [inhibitor, single point]",
Cn1c(N)c(C(=O)NCc2ccccc2)sc1=S,"inconclusive: 8.91 µM [inhibitor, single point]",
COc1cccc(CN2CCN(c3ncccn3)CC2)c1OC,"inconclusive: 17.8 µM [inhibitor, full curve, poor fit]",
CCN(CC)C(=O)Cn1cc(C(=O)C(=O)N2CCN(c3ccc([N+](=O)[O-])cc3)CC2)c2ccccc21,inactive,
CCOCC(=O)Nc1nnc(C2CCCCC2)s1,"inconclusive: 4.47 µM [inhibitor, single point]",
COCc1[nH][nH]c(=O)c1C=Nc1ccc(C(F)(F)F)cc1,"inconclusive: 35.5 µM [inhibitor, full curve]",
CCn1c(C)nc([N+](=O)[O-])c1C(=O)O,"inconclusive: 1.58 µM [inhibitor, full curve, poor fit]",
NC(=O)c1cccn1Cc1ccccc1Cl,"inconclusive: 89.1 µM [inhibitor, partial curve, poor fit]",
Fc1cccc(Cl)c1CSc1nnc2ccccn12,inactive,
COc1ccc(-c2ccc(=O)n(CC(=O)NCCc3ccccc3)n2)cc1,"inconclusive: 28.2 µM [inhibitor, single point]",
O=C(COC(=O)c1ccccc1[N+](=O)[O-])c1ccc2c(c1)OCO2,"inconclusive: 50.1 µM [inhibitor, partial curve]",
O=S(=O)(N/N=C1/CC(c2ccccc2)Oc2ccccc21)c1ccc(Br)cc1 (stereo unspecified),"inconclusive: 89.1 µM [inhibitor, single point]",
CCOc1ccc(C(=O)c2cn(CC(=O)Nc3cc(OC)ccc3OC)c3cc(OC)c(OC)cc3c2=O)cc1,"inconclusive: 12.6 µM [inhibitor, partial curve, poor fit]",
O=C(NNc1ccc([N+](=O)[O-])cc1)Nc1ccccc1,"inconclusive: 0.355 µM [inhibitor, full curve, poor fit]",
CCOC(=O)c1[nH]c2cc(OC)c(OC)cc2c1N,active: 3.16 µM,
O=C(O)CCCC(=O)N1CC(=O)Nc2ccccc21,"inconclusive: 8.91 µM [inhibitor, partial curve, poor fit]",
COc1ccc(N(C(=O)c2cccnc2)S(=O)(=O)c2ccc(OC)c(OC)c2)cc1,inactive,
COc1cccc(CNC(=O)c2nnn(CC(=O)Nc3ccc(C)c(C)c3)c2N)c1,inactive,
CN(CCC#N)C(=S)NC(=O)c1ccc(S(=O)(=O)N2CCOCC2)cc1,active: 11.2 µM,
C#CCn1cc(/C=C2\NC(=O)NC2=O)c2ccccc21,"inconclusive: 70.8 µM [inhibitor, single point]",
CCOC(=O)c1c(NC(=O)c2cccc([N+](=O)[O-])c2C(=O)O)sc2c1CCCC2,inactive,
Cc1cc(C)c(NC(=O)C(C)n2nnc3sc(-c4ccccc4)cc3c2=O)c(C)c1 (stereo unspecified),active: 10 µM,
O=C(COC(=O)Cn1cnc2ccccc21)NCc1ccc(F)cc1,"inconclusive: 89.1 µM [inhibitor, partial curve, poor fit]",

SMILES,Potency,"activity, negative = inhibition"
CCOC(=O)C1CCN(C(c2ccc(F)cc2)c2sc3nc(-c4ccco4)nn3c2O)CC1 (stereo unspecified),"inconclusive: 20 µM [inhibitor, partial curve, poor fit]",
C=CCNC(=O)COc1coc(CN2CCN(Cc3ccccc3)CC2)cc1=O,,inactive: 18.3% [at 0.501 µM]
CN1CCN(CCCNC(=O)c2ccc3c(c2)N(Cc2ccc(F)cc2)CCS3)CC1,inactive,
Nc1nc(Nc2ccccc2)nc2ccccc12,"inconclusive: 79.4 µM [inhibitor, single point]",
CC(=O)Nc1ccc(NC(=O)c2ccccc2-n2cnnn2)cc1,"inconclusive: 56.2 µM [inhibitor, partial curve]",
CCN(c1ccc(C(=O)CSc2nnc(C3CC3)n2C2CC2)cc1)S(C)(=O)=O,"inconclusive: 31.6 µM [inhibitor, single point]",
CN1CCN(S(=O)(=O)c2cccc(C(=O)NCCOc3ccccc3)c2)CC1,"inconclusive: 89.1 µM [inhibitor, partial curve, poor fit]",
O=c1cc(Cc2ccccc2)[nH]c(=S)[nH]1,"inconclusive: 35.5 µM [inhibitor, single point]",
O=C(Nc1nnc(COc2ccc(Cl)cc2)s1)C1CCCO1 (stereo unspecified),,inconclusive: -117% [inhibitor] [at 12.7 µM]
CCC(=O)c1ccc(OCC(=O)Nc2ccccc2C(=O)N2CCCCC2)cc1,"inconclusive: 63.1 µM [inhibitor, partial curve, poor fit]",
COc1cccc(Cn2c(=O)cnc3cnc(OC)nc32)c1,,inactive: 9.14% [at 0.501 µM]
CCOC(=O)C1C2C=CC3(CN(Cc4ccco4)C(=O)C13)O2 (stereo unspecified),"inconclusive: 31.6 µM [inhibitor, single point]",
CN(C)c1ccc(/C(=N\O)c2ccccc2)cc1,active: 14.1 µM,
Cc1nn2c(C)c(C(=O)Nc3ccccc3)cnc2c1C#N,active: 15.8 µM,
CCc1ccc(NC(=O)CSc2nc(=O)n(CCCN(C)C)c3c2CCC3)cc1,inactive,
CSc1cnc2c(N)nc(N(C)C)nc2n1,"inconclusive: 100 µM [inhibitor, single point]",
O=C(CCC(=O)N(CC(=O)NC1CCCC1)Cc1cccs1)Nc1nccs1,inactive,
CC1CCCCN1C(=O)COC(=O)c1cc([N+](=O)[O-])ccc1N1CCOCC1 (stereo unspecified),active: 44.7 µM,
Nc1c(C(=O)NCc2ccccc2)nnn1Cc1cccc(Br)c1,inactive,
O=C(CCN1CCC(c2ccccc2)C1)c1cccs1 (stereo unspecified),"inconclusive: 25.1 µM [inhibitor, partial curve, poor fit]",
Cc1cccc(NC(=O)Cn2c(=O)n(CCC(=O)N3CCc4ccccc4C3)c(=O)c3ccccc32)c1,inactive,
CCOC(=O)c1cccc(NC(=O)c2cc3cc4ccc(C)cc4nc3s2)c1,active: 12.6 µM,
CC1Cc2ccccc2N1C(=O)COC(=O)CCc1nc2ccccc2c(=O)[nH]1 (stereo unspecified),inactive,
